Test results reported in patent US20220153862A1 (CSPC MEGALITH BIOPHARMACEUTICAL, published 2022).

What was measured:
[1] = molecular target: T1, TROP2 expressed on human cancer cell lines (human, UniProt P09758 27-323); experiment: cell-based or functional assay
T1 sequence: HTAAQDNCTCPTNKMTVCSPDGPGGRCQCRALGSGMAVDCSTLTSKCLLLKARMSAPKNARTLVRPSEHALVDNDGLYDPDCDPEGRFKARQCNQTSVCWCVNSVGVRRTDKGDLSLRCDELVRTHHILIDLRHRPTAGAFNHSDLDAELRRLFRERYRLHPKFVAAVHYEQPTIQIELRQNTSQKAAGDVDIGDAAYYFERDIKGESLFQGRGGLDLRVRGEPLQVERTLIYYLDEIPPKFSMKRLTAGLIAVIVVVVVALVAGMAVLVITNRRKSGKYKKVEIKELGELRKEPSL

[2] = molecular target: T1, TROP2 expressed on human cancer cell …; experiment: cell-based or functional assay; remark: listed apart in the source

B1: DP002-HC1LC1-ADC (other)
heavy: QVQLVQSGAEVKKPGASVKVSCKASGYTFTDYSINWVRQAPGQGLEWMGVISTYYGDASYNQKFKGRVTMTTDTSTSTAYMELRSLRSDDTAVYYCARYGDGYNQFDYWGQGTMVTVSS[human IgG1 constant region cut from this listing]
light: DIVMTQSPDSLAVSLGERATINCRVSESVDSYGNNFMHWYQQKPGQPPKLLIYRASNLESGVPDRFSGSGSGTDFTLTISSLQAEDVAVYYCQQSYEDPYTFGQGTKLEIKRTVAAPSVFIFPPSDEQLKSGTASVVCLLNNFYPREAKVQWKVDNALQSGNSQESVTEQDSKDSTYSLSSTLTLSKADYEKHKVYACEVTHQGLSSPVTKSFNRGEC
modifications: conjugated to monomethyl auristatin E (MMAE) at a drug-antibody ratio (DAR) of 2; the example does not state the site or the chain
Question: For B1, which “IC50 (nM), in vitro cytotoxicity, HCC38 cells” value [1] is on record?
Answer: > 100 nM

Question: What about the “IC50 (nM), in vitro cytotoxicity, MDA-MB-468 cells” value [1] of the same binder?
Answer: 0.15 nM

Question: What about the “IC50 (nM), in vitro cytotoxicity, BxPC-3 cells” value [2] of the same binder?
Answer: 0.16 nM

Question: And the “IC50 (nM), in vitro cytotoxicity, HCC1954 cells” value [2]?
Answer: 0.18 nM

Question: And the “IC50 (nM), in vitro cytotoxicity, NCI-N87 cells” value [2]?
Answer: 0.04 nM
